Here are results for 87 molecules from ChEMBL document CHEMBL4888484, “Replenishing the malaria drug discovery pipeline: Screening and hit evaluation of the MMV Hit Generation Library 1 (HGL1) against asexual blood stage Plasmodium falciparum ,using a nano luciferase reporter read-out” (2022).

For orientation: % Inhibition means the relative decrease from the control value, in per cent.

The assay concerns Plasmodium falciparum. Briefly: Primary screen in NF54 nanoGlo assay, in single point, at 2uM, 72h; a lower Z score goes with more inhibition. The format is functional, Erythrocyte. To be noted: timepoint 72 hour.

Where “and” joins values, the source holds several entries; their conditions need not be identical. Equal entries are not always repeated. About 540 (0.36%) of roughly 150,000 compounds showed an effect of 50% or more. The list shows a part of the results.

In the case of `Cc1c(CCC(=O)N(Cc2ccco2)c2cccc(F)c2)cnn1C`, the “% Inhibition” value was -2% and the Z score amounted to 0.32. For `CC(C)NC(=O)CNC(=O)NCC(=O)NC1CCCCC1` the same measures were -13% and 1.16. `Cc1ccc2c(c1)N(C(=O)CCc1ncc(C(C)(C)C)o1)CCCO2`: the “% Inhibition” value came to 7% and the Z score was -1.04.

With `COCCN1C[C@@H](Cc2ccnc(OC)c2C#N)CC1=O`, the “% Inhibition” value turned out to be 22% and the Z score is on record as -2.77.

On to `Cc1cccc(N(C)C(=O)CC[C@H]2CCCO2)n1`, for which the “% Inhibition” value is -2% and the Z score is given as 0.32. With `CCn1ccc(CN2C(=O)COc3ccc(F)cc32)n1`, the “% Inhibition” value was -5% and the Z score is recorded as 0.74. For `Cc1cc(C)c(C#N)c(N(C)CCN2CCCC2)n1`, the “% Inhibition” value is reported as -16% and the Z score came to 2.26.

Regarding `Cn1c(CN2C[C@H](Cc3ccccc3)[C@@H](O)C2)cc(=O)n(C)c1=O`, the “% Inhibition” value is -1% and the Z score stood at 0.1. For `CC(C)(C)c1cccc(Oc2nn[nH]n2)c1` the same measures were 33% and -1.02. Consider `Cc1cc(NC(=O)Nc2ccc(Cc3nnc4ccccn34)cc2)on1`, for which the “% Inhibition” value was found to be 7% and the Z score was -1.03. As to `O=C(NCc1ccc2c(c1)OCO2)[C@H]1CCN(c2cn[nH]c(=O)c2)C1`, the “% Inhibition” value is on record as -12% and the Z score is 2.19.

On to `CC(=O)N1CCCN(S(=O)(=O)N2CCCCCC2)CC1`, for which the “% Inhibition” value is -1% and the Z score turned out to be 0.13.

In the case of `Cc1nnc(CN(C)CC2(N3CCOCC3)CCCCC2)o1`, the “% Inhibition” value is on record as -7% and the Z score turned out to be 1.15. For the molecule `COc1ccc(CCNC(=O)c2coc(NC(=O)c3cnccn3)n2)cc1OC`, the “% Inhibition” value was 4% and the Z score is reported as -0.53.

Regarding `CCCc1nc(CN(C)c2ccc(OC)c(Cl)c2)no1`, the “% Inhibition” value came out at 2% and the Z score is given as -0.31. Turning to `CS(=O)(=O)NCCNC(=O)NC1(Cc2ccc(Br)cc2)CCCCC1`, the “% Inhibition” value is reported as -2% and the Z score stood at 0.19. Take `CCN(C)Cc1cncc(-c2ccc3ccccc3c2)c1`: the “% Inhibition” value was 4% and the Z score is on record as -0.63. As for `CCCn1nc(C2CCOCC2)nc1-c1ccc(CN)cc1`, the “% Inhibition” value was -10% and the Z score stood at 1.66. For `COCC1(Cn2cnc(-c3ccccc3)c2-c2cnn(C)c2)CCCC1` the same measures were -6% and 0.75. Consider `CN(C)C1COCC1Oc1cc(C(F)(F)F)ccn1` (stereo not drawn), for which the “% Inhibition” value is reported as -5% and the Z score is 0.73.

Consider `CN(C)S(=O)(=O)N1CCn2nc3c(c2C1)CCC3`, for which the “% Inhibition” value turned out to be 18% and the Z score is reported as -2.32. As for `COC(=O)c1cc(C)nc2c1c(=O)n(CC(=O)Nc1ccccc1F)c(=O)n2-c1cccc(OC)c1`, the “% Inhibition” value is -1% and the Z score is on record as 0.16. Consider `CCS(=O)(=O)c1ccc(-c2cnn(C)c2)s1`, for which the “% Inhibition” value is on record as -8% and the Z score worked out at 1. Regarding `O=C(NCc1ccccc1)N1C[C@@H](CO)C[C@@H](CN2CCOCC2)C1`, the “% Inhibition” value is given as -17% and the Z score amounted to 1.72. With `CCCC(=O)N(CCOC)CC1(C)CCOCC1`, the “% Inhibition” value is -7% and the Z score is 1. Regarding `CCOC(=O)c1ccc(N2C(=O)[C@@H]3[C@H](Cc4ccccc4)N[C@]4(C(=O)Nc5ccccc54)[C@@H]3C2=O)cc1`, the “% Inhibition” value was -8% and the Z score is reported as 1.01. With `COc1ccccc1CN(c1ccc2nnnn2n1)C1CC1`, the “% Inhibition” value was -1% and the Z score is given as 0.13. For `COc1cc([C@H]2N(c3ccccn3)C(=O)[C@@H]3CCCN32)cc(OC)c1OC` the same measures were 6% and -0.77.

For the molecule `CN(CC(=O)N1CCCC1)CC1(CO)CCCC1`, the “% Inhibition” value is on record as -5% and the Z score was determined as 0.83. For `Cc1cc(C(=O)NCc2c[nH]nn2)no1` the same measures were -5% and 0.46. Regarding `CC(C)NC(=O)Cn1ncc(N(C)Cc2ccccc2)cc1=O`, the “% Inhibition” value is reported as -7% and the Z score worked out at 1.14.

`C[C@H]1CCCN(S(=O)(=O)N(CCC#N)CCN2CCOCC2)C1`: the “% Inhibition” value was determined as 7% and the Z score is on record as -1.15. For the molecule `Nc1nccc(-c2cnc(-c3cccc(Cl)c3)s2)n1`, the “% Inhibition” value is reported as -8% and the Z score was 1.11. As for `CCCNC(=O)CC[C@H]1NC(=O)c2ccccc2NC1=O`, the “% Inhibition” value was determined as 2% and the Z score is on record as -0.19. In the case of `CCOc1ncccc1CNc1nc(C2CCCC2)nc2c1CNC2`, the “% Inhibition” value is listed as -3% and the Z score is recorded as 0.41. For `Cc1csc(CNc2cccc(-n3cnnc3)c2)n1` the same measures were -5% and 1.02. In the case of `Cc1nc(C)c(S(=O)(=O)N2CC=C(c3c(F)cccc3F)CC2)s1`, the “% Inhibition” value is on record as -7% and the Z score is 0.68. With `CC(CO)C(NC(=O)c1cnc(C2CCCO2)s1)c1ccc(Br)cc1` (stereo not drawn), the “% Inhibition” value is listed as -3% and the Z score was 0.49. `CCc1c(C(=O)NCc2cccnc2)csc1C`: the “% Inhibition” value is -25% and the Z score is 2.31. In the case of `Cc1noc(C)c1C(=O)Nc1n[nH]c(C(C)C)n1`, the “% Inhibition” value (2 µM) is 3% and -12%.

For `Cc1ccc2c(C(=O)NCc3c(C)n[nH]c3C)cc(C)nc2c1`, the “% Inhibition” value came out at 15% and the Z score is recorded as -1.96. `O=C(O)CC[C@@H]1CN(Cc2cccnc2)CC[C@@H]1N1CCN(c2ccccc2F)CC1`: the “% Inhibition” value turned out to be 15% and the Z score is listed as -2.11. As to `NC(=O)N1CCC[C@H](C(=O)OCCC#Cc2ccccc2)C1`, the “% Inhibition” value was -7% and the Z score turned out to be 0.85.

As for `Cc1ccc(C(=O)Nc2ccc3c(c2)C(=O)N(C[C@H]2CCCO2)C3=O)cc1`, the “% Inhibition” value is given as 3% and the Z score is -0.32.

`Clc1ccc(-n2nnnc2-c2cnc(-c3cnccn3)nc2-c2cccs2)cc1`: the “% Inhibition” value is reported as -10% and the Z score is 1.12. Consider `Cc1nc(COC(=O)c2ccncc2)oc1C`, for which the “% Inhibition” value is -7% and the Z score amounted to 1.33. For `O=C1Nc2ccc(S(=O)(=O)Nc3ccccc3)cc2C1=O` the same measures were -11% and 1.66. On to `CCC(=O)c1ccc(Cl)c(S(=O)(=O)NC(=O)COC2CCCCC2)c1`, for which the “% Inhibition” value is listed as 0% and the Z score stood at 0.01.

Consider `c1cnc(-n2ncc3c(N[C@H]4CCOC4)ncnc32)nc1`, for which the “% Inhibition” value is reported as -9% and the Z score is reported as 0.81.

Consider `CC(C)Oc1cc(CNS(=O)(=O)C2Cc3ccccc3C2)ccn1`, for which the “% Inhibition” value is -2% and the Z score is reported as 0.34. As to `Cc1cccc(C)c1OCCC(=O)NCC#CCN(C)C`, the “% Inhibition” value worked out at 14% and the Z score is reported as -1.87.

With `O=C(C1CCCCN1C(=O)C1CC2CCC1C2)N1CCOCC1` (stereo not drawn), the “% Inhibition” value was -1% and the Z score was 0.18. `Cc1nnc(CN2CCC([C@H](O)c3ccnn3C)CC2)s1`: the “% Inhibition” value is -10% and the Z score is on record as 1.48.

Regarding `O=C(c1ccoc1)N1CCN(Cc2ccccc2)[C@@H]2CS(=O)(=O)C[C@@H]21`, the “% Inhibition” value is given as 12% and the Z score is recorded as -1.53. `Cc1ccc(-n2nc(C(=O)N(C)c3ccccn3)c3c2CCC3)c(C)c1`: the “% Inhibition” value is given as -9% and the Z score stood at 1.15. As for `O=C(Cc1ccc(Cl)cn1)N1CCNCCC12CCC2`, the “% Inhibition” value was -12% and the Z score came to 1.95. For `COc1ccc2c(C)nc(N3CCC(C(=O)N[C@H]4CCCc5ccccc54)CC3)nc2c1` the same measures were -7% and 1.33.

Turning to `CCC(CC)(CC)S(=O)(=O)Cc1nnc2n1CCOC2`, the “% Inhibition” value came out at 1% and the Z score was -0.09. For `COCCc1nc(CO[C@H]2CCCN(C(=O)C3CCC3)C2)no1` the same measures were -6% and 0.88. Take `O=C(c1cnn(C2CCCCC2)c1)N(CC(F)(F)F)C1CC1`: the “% Inhibition” value is -12% and the Z score is 1.53. With `Cc1cc(NC(=O)NC[C@](C)(O)C(C)C)no1`, the “% Inhibition” value is -1% and the Z score worked out at 0.19. For `CC(C)CNC(=O)c1cccc(Nc2c(Oc3ccc4c(c3)OCO4)cnn(C)c2=O)c1`, the “% Inhibition” value came to 3% and the Z score is given as -0.43. As to `Cc1ccc(C(=O)N2CCN(S(=O)(=O)c3cc4c(cc3C)NC(=O)[C@H](C)O4)CC2)cc1`, the “% Inhibition” value turned out to be 1% and the Z score is recorded as -0.14. In the case of `Cc1noc(C)c1CN(C)C(=O)Nc1nncs1`, the “% Inhibition” value is on record as -2% and the Z score is listed as 0.31. Consider `COc1ccc(N2CCN(C(=O)Cn3c(Nc4ccc(F)c(C)c4)nc(C)cc3=O)CC2)cc1`, for which the “% Inhibition” value is listed as 6% and the Z score is on record as -0.9. With `COc1ccc(N2C(=O)[C@@H]3CCCN3[C@H]2c2ccc(C(C)C)cc2)cc1Cl`, the “% Inhibition” value is reported as -3% and the Z score worked out at 0.4. For `CC(=O)Nc1ccc(Br)c(C(=O)NCCc2nnc3ccccn23)n1` the same measures were 4% and -0.55.

With `CCN(CCOc1ccc(Br)cc1)C(=O)c1cc(COC(C)(C)C)on1`, the “% Inhibition” value is recorded as -15% and the Z score is 1.39. Turning to `Cc1ccc(Nc2nn(CC(=O)NCc3ccc(Cl)cc3)c(N)c2S(=O)(=O)c2ccccc2)cc1`, the “% Inhibition” value is -7% and the Z score came to 0.86. For `Clc1ccccc1-c1cc(CN[C@H]2CCCOC2)no1` the same measures were -7% and 1.19.

As to `Cc1ocnc1CNC(=O)NC1CCCCC1`, the “% Inhibition” value is reported as -1% and the Z score is given as 0.07.

Take `CC(c1ccccc1)n1cnc2c1c(=O)n(CC1CCCO1)c(=O)n2-c1ccccc1` (stereo not drawn): the “% Inhibition” value was -9% and the Z score amounted to 1.27. `OC(CN1CCCCC1Cn1cncn1)c1ccc(F)cc1` (stereo not drawn): the “% Inhibition” value is recorded as -4% and the Z score came out at 0.64. In the case of `N#Cc1ccc(-c2nc(-c3ccc4c(c3)ncn4CCN3CCCC3)no2)cc1`, the “% Inhibition” value is recorded as -10% and the Z score is given as 1.66. Regarding `CC(C)C(NC(=O)NC1C2CCOC2C1(C)C)c1ccccn1` (stereo not drawn), the “% Inhibition” value is 2% and the Z score is listed as -0.45. For `O=C(Cc1ccsc1)NCCn1ccc(-c2cnccn2)n1` the same measures were 10% and -1.29. Consider `C#Cc1cccc(N(C)C(=O)C2CCCCC2C(F)(F)F)c1` (stereo not drawn), for which the “% Inhibition” value worked out at 9% and the Z score is given as -1.77. Regarding `O=C(CCc1nnc(-c2cc3ccccc3o2)o1)N1CCCCCC1`, the “% Inhibition” value is on record as -15% and the Z score was 1.55. Turning to `CCCN(CC(F)(F)F)C(=O)c1csc(NC(C)=O)n1`, the “% Inhibition” value is given as -12% and the Z score was 1.47. `CN(C[C@H]1COCCO1)c1nc(N)nc2ccc(C(=O)O)cc12`: the “% Inhibition” value is -3% and the Z score worked out at 0.24. In the case of `Cc1nnc(NCC2CCOC(C(C)C)C2)o1` (stereo not drawn), the “% Inhibition” value is recorded as -10% and the Z score was 1.86. For `C[C@@H](C(=O)Nc1ccc(Cl)cc1F)N1CCC(NS(=O)(=O)c2cccs2)CC1`, the “% Inhibition” value is 25% and the Z score was -2.38. `O=C(NCc1ccccc1)c1ccc(N2CCCc3ccccc32)s1`: the “% Inhibition” value was -5% and the Z score is reported as 0.55. In the case of `COc1cncc(C(=O)N2CC(C)(C)[C@@H]2C2CC2)n1`, the “% Inhibition” value was determined as 5% and the Z score is -0.55. Turning to `Cn1ccnc1[C@H](O)c1cc(C(C)(C)C)c(O)c(C(C)(C)C)c1`, the “% Inhibition” value is given as -8% and the Z score came to 1.42. Turning to `CCOC(=O)C(Cc1ccncc1)(NC(C)=O)C(=O)OCC`, the “% Inhibition” value is -7% and the Z score is 1.12. Consider `CNC(=O)COc1c2c(cc3c1C(=O)N(C)CC3)OCO2`, for which the “% Inhibition” value is recorded as -17% and the Z score came out at 2.2.
